Test results as given in publication PMC3305431.
These are yes or no findings as the source states them, for the method shown. Some results given as binding are weak or reduced against the parent protein; the word gives no strength.

Chains of the proteins cited; added tags and fusions are not shown. Lines headed by an entry give the natural chain unless they say otherwise; changes in a name come on top.
UniProt Q7XBQ9: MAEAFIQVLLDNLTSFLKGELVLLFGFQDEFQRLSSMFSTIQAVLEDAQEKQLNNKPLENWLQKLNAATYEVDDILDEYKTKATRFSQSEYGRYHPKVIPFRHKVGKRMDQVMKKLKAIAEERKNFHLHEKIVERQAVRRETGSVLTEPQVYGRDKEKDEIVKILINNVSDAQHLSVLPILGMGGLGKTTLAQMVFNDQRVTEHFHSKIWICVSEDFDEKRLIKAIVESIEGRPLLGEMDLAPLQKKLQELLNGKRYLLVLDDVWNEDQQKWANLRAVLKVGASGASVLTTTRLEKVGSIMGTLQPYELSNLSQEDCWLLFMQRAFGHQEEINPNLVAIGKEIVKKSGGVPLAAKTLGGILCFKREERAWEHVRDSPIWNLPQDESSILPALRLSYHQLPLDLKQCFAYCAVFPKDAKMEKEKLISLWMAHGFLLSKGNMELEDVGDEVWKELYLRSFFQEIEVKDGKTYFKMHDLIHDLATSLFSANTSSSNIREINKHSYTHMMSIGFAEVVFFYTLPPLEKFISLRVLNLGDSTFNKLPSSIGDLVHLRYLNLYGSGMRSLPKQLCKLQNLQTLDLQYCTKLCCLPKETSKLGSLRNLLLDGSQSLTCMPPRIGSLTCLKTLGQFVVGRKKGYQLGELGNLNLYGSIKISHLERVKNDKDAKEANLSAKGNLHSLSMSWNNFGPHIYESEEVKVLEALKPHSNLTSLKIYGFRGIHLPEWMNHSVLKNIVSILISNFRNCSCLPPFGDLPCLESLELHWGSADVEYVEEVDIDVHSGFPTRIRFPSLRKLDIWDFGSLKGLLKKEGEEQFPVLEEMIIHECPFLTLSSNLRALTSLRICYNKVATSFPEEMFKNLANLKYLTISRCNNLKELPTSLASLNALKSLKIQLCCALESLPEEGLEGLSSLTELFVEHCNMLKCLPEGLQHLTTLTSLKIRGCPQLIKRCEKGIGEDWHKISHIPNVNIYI

Experiments:
Experiment in all cases: two-hybrid
[1] = target: CC domain of RB (aa 1-165) (Solanum bulbocastanum) (UniProt Q7XBQ9)
[2] = target: CC-NB domain of RB (aa 1-521) (Solanum bulbocastanum) (UniProt Q7XBQ9)
[3] = target: LRR domain of RB (aa 522-970) (Solanum bulbocastanum) (UniProt Q7XBQ9)
[4] = target: NB domain of RB (aa 166-521) (Solanum bulbocastanum) (UniProt Q7XBQ9)

## CC domain of RB (aa 1-165) (from UniProt Q7XBQ9 1-165) (domain or fragment)
[1]
  binding: binds

## CC-NB domain of RB (aa 1-521) (from UniProt Q7XBQ9 1-521) (domain or fragment)
[2]
  binding: no binding
[3]
  binding: no binding
[4]
  binding: no binding
[1]
  binding: no binding

## LRR domain of RB (aa 522-970) (from UniProt Q7XBQ9 522-970) (domain or fragment)
[3]
  binding: no binding
[4]
  binding: no binding
[1]
  binding: no binding

## NB domain of RB (aa 166-521) (from UniProt Q7XBQ9 166-521) (domain or fragment)
[4]
  binding: no binding
[1]
  binding: no binding
